# Screen size: about 48,000 compounds; about 120 (0.25%) were called active. Roughly 4% stayed inconclusive and do not appear here. Calls come from the whole dose curve; as a rule, active = well fitted activation curve with a large enough effect; inconclusive = small, poorly fitted or top-dose-only effect, or another doubt; inactive = no such curve, though single readings can be large or run the other way. The list shows a part of the results, in another mix than the full data. The source gives no active or inactive call for entries shown without one.
# Assay: Primary qHTS for Identification of Small Molecule Activators of Huntingtin-Antisense Promoter Activity; note: nearly all actives have a fitted effect of over 55% in size
# Details: HEK293 HTT-AS promoter firefly luciferase reporter, 24 h; activity change, positive = activation: at 57.5 µM (top of the series), percent change from vehicle, -100% = no light
# Outline: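 Quantitative HTS used concentration series of up to 57.5 uM final on HEK293 luciferase reporter cells, 24 h at 37 degrees C. Readout was Dual-Glo firefly luminescence.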
# Potency is the fitted concentration of half-maximal effect.
SMILES,"activity change, positive = activation",Potency
CC(CNC(=O)c1cc2ccccn2n1)c1ccccc1 (stereo not drawn),62.4%,
COc1ccc(-c2nc(SCCOc3cc(C)ccc3C(C)C)n3[nH]c(=O)cc3n2)cc1,-4.43%,
Cc1cc(C)cc(NC(=O)c2cc3c(=O)n(Cc4ccco4)ccc3nc2C)c1,-14.2%,
O=S(=O)(c1ccc(Cl)cc1)c1nnn2c1nc(NCc1ccccc1)c1sccc12,inactive: -8.9%,
Cc1cc(NC(=O)c2ccco2)cc(-c2nc3cc(Cl)ccc3o2)c1O,inactive: -16.7%,
CSc1cccc(NC(=O)CC(c2ccc(F)cc2)N2Cc3ccccc3C2=O)c1 (stereo not drawn),-51.1%,
Cn1c(=O)n(C)c2cc(N3CCOCC3)c(NS(=O)(=O)c3ccc(Br)cc3)cc21,6.42%,
O=C(Nc1ccc(F)cc1F)c1cc(-c2ccc3c(c2)OCO3)on1,24.2%,
Cc1cccc(OCC(=O)Nc2cccc(-c3nc4ccccc4s3)c2)c1,76.7%,
CCOc1ccccc1NC(=O)c1ccc(C(=O)Nc2ccccc2OCC)cc1,0.155%,
CCc1cccc(C)c1NC(=O)c1nc2ccccc2nc1N1CCCCC1,inactive: -2.99%,
COc1ccc(C2C(=O)N(C3CCCCCC3)CC(=O)N2Cc2ccccc2)cc1 (stereo not drawn),-26%,
CCCCNC(=O)c1cc(-c2ccc(Cl)c(Cl)c2)on1,23.1%,
Cc1ccc(NC(=O)c2ccc3c(c2)NC(=O)c2ccccc2S3)cc1,-45.9%,
COc1ccc(-c2cc(C(=O)Nc3sc4c(c3C(N)=O)CCC(C)C4)no2)cc1 (stereo not drawn),-4.12%,
Cn1c(=O)[nH]c(=O)c2c1nc(NCCO)n2CC(O)COc1ccccc1 (stereo not drawn),2.94%,
COc1ccc(-c2cc(C(=O)N3CCN(c4ccc(F)cc4)CC3)no2)cc1OC,-7.43%,
O=S(=O)(Nc1cccc(-c2ccc(N3CCOCC3)nn2)c1)c1ccccc1C(F)(F)F,6.19%,
Cc1ccccc1NC(=O)c1c(NC(=O)C(F)(F)F)sc2c1CCCCC2,inactive: -96.1%,
COc1ccc(OC)c(S(=O)(=O)Nc2cccc(-c3ccc(N4CCCCCC4)nn3)c2)c1,6.51%,
O=C(C1CCN(S(=O)(=O)Cc2ccccc2)CC1)N1CCN(c2ccccc2F)CC1,0.56%,

SMILES,"activity change, positive = activation",Potency
CCc1ccccc1OCCSc1nnc(-c2cc(OC)c(OC)c(OC)c2)o1,-9.41%,
COc1ccc(S(=O)(=O)Nc2cccc(-c3ccc(N4CCCC4)nn3)c2)cc1OC,2.51%,
COc1ccc(-c2cc(C(=O)Nc3sc4c(c3C#N)CCCC4)no2)cc1OC,5.61%,
CCCc1cc(C(=O)Nc2c(C)nn(Cc3ccc(Cl)c(Cl)c3)c2C)no1,-36%,
Cc1ccc(C(=O)c2sc(Nc3ccc(F)cc3)nc2N)c(C)c1,9.81%,
CCN1CCOC(=O)C1CC(=O)Nc1cc(Cl)ccc1C (stereo not drawn),inactive: -15.2%,
CCOC(=O)c1cccc(NC(=O)CC2C(=O)N(c3ccc(F)cc3)C(=O)N2Cc2cccc(OC)c2)c1 (stereo not drawn),-10.8%,
Cc1nn(-c2ccc(N3CCOCC3)nn2)c(C)c1CCC(=O)Nc1ccc(F)cc1F,27%,
Cc1cc(C)cc(OCCSc2nc(-c3cccs3)nc3cc(=O)[nH]n23)c1,-0.815%,
Cc1ccc(S(=O)(=O)Nc2nc3ccccc3nc2Nc2ccc3nsnc3c2)cc1,"inactive: -26.8% [at 25.1 µM, percent change from vehicle, -100% = no light]",
CCc1nn(CC(=O)NCCCc2ccccc2)c(=O)c2cc3c(OC)cccc3n12,-0.756%,
CC(=O)c1ccc(NC(=O)c2cc(-c3ccc4c(c3)OCO4)on2)cc1,3.06%,
Cc1ccc2nc(N3CCN(c4cccc(Cl)c4)CC3)c3nnnn3c2c1,-2.13%,
N#CSCC(=O)O,inactive: 0.446%,
Cc1onc(-c2c(F)cccc2Cl)c1C(=O)Nc1ccc(OC(C)C)cc1,inactive: -7.99%,
COc1cc(C2C(=O)N(C3CCCCC3)CC(=O)N2CCC2=CCCCC2)ccc1OC(C)C (stereo not drawn),-6.05%,
Cc1cc(C)cc(NC2=C(c3ccccc3)C(=O)c3ccccc32)c1,-37.3%,
Cc1ccc(NC(=O)c2cc3c(=O)n(Cc4ccco4)ccc3nc2C)cc1C,-18.2%,
CCOC(=O)c1c(NC(=O)c2cc(CC(C)C)on2)sc(C(C)=O)c1C,-8.17%,
Cc1ccc(NC(=O)c2c(C)oc3ccc(O)c(CN4CCOCC4)c23)c(C)c1,-8.3%,
COc1ccc(CCNC(=O)c2cnc3sc(N4CCCCC4)nn3c2=O)cc1OC,-1.33%,

SMILES,"activity change, positive = activation",Potency
CCOC(=O)c1c(-c2ccccc2)csc1NC(=O)c1cc(-c2ccc(C)c(F)c2)on1,-1.73%,
CCOc1cccc(OCCCn2c(-c3ccc(Br)cc3)nc3ccccc3c2=O)c1,-0.398%,
Cc1ccc(Cl)cc1N1CCN(C(=O)c2ccc3nc(N4CCC(C)CC4)sc3c2)CC1,inactive: -78.6%,
Cc1ccccc1Cn1nc(C)c(NC(=O)c2cc(CC(C)C)on2)c1C,-25.5%,
Cn1cnc2c(=O)oc3ccc(S(=O)(=O)N4CCN(c5ccccc5F)CC4)cc3c21,-15.7%,
COc1ccccc1-c1cc(C(=O)NCCc2ccccc2)no1,42.4%,
CCOC(=O)c1ccc(NC(=O)CC2C(=O)N(c3ccc(C)cc3)C(=O)N2C2CCCC2)cc1 (stereo not drawn),-33.1%,
COC(=O)CN1C(=O)CSc2ccc(S(=O)(=O)Nc3c(C)cc(C)cc3C)cc21,-7.52%,
CCc1ccc(NC(=O)c2c(C(=O)Nc3ccccc3)sc3nc(C)cc(=O)n23)cc1,-11.3%,
COc1cccc(-c2cc(C(=O)N3CCN(c4ccc(F)cc4)CC3)no2)c1,-4.21%,
Cc1ccc(Cc2nc3ccccc3nc2SCC(=O)NCCc2ccccc2)cc1,inactive: -14.6%,
C=C(C)Cn1c(SCC(=O)Nc2cccc(Cl)c2)nc2sc3c(c2c1=O)CCCC3,-10.1%,
COc1cc(NC(=O)c2cc(-c3cccc(Cl)c3)on2)c(OC)cc1Cl,0.426%,
COc1cccc(CNC(=O)CCCn2c(=O)c3cccn3c3cccnc32)c1OC,inactive: -1.29%,
CCCCOc1ccc(C(=O)Nc2onc3c2CCCC3)cc1,,active: 12.6 µM
O=C(/C=C/c1cn(CC(O)CN2CCCCCC2)c2ccccc12)c1ccc(Br)cc1 (stereo not drawn),inactive: -25.9%,
O=C(Nc1c(Cl)cccc1Cl)c1cc(-c2cccc(O)c2)on1,55.5%,
Cc1ccc2oc(-c3ccc(Cl)c(NC(=O)c4ccc(OC(C)C)cc4)c3)nc2c1,31.4%,
COC(=O)Cc1c(C)c2cc3c(c(C)c2oc1=O)OCN(CCc1ccc(OC)cc1)C3,-14.7%,
COc1ccc(-c2cc(=O)oc3c4c(ccc23)OCN(Cc2cccc(OC)c2)C4)cc1,-26.2%,
CSc1cccc(N2C(=O)N(CC(=O)NCc3ccccc3Cl)c3ccccc3S2(=O)=O)c1,inactive: -23.4%,

# Source: PubChem BioAssay AID1508624 (National Center for Advancing Translational Sciences (NCATS), 2021)
